PubChem BioAssay AID1240 (Sanford-Burnham Center for Chemical Genomics, 2008)
Screen size: about 50,000 compounds; about 800 (1.6%) showed an effect of 50% or more. This is one part of the list.

The compounds below were run against Bcl-2-like protein 10 (Homo sapiens) (UniProt Q9HD36) (assay: TR3 peptide-Bcl-B binding displacers, biochemical primary FP assay, phenotype converters (AID 1240;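 note: 0% = Bcl-B with tracer peptide and DMSO and 100% = tracer peptide lacking Bcl-B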)). Details: GST-Bcl-B / FITC-TR3 peptide fluorescence polarization; stronger effect = higher value; compound at 3.75 mg/L.
Sequence of UniProt Q9HD36 (Q9HD36 whole entry, looked up): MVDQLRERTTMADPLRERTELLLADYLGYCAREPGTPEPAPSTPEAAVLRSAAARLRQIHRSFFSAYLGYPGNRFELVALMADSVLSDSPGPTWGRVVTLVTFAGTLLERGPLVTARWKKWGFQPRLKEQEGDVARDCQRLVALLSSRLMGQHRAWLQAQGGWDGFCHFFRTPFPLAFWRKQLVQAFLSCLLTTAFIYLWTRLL

| SMILES | displacement [%] |
| --- | --- |
| O=C(N/N=C/c1ccc([N+](=O)[O-])o1)c1ccc(O)cc1 | 5.9 |
| CCC(=O)Nc1ccc(-c2nc3ncccc3o2)cc1 | -3.3 |
| Cc1cc(C)cc(NCc2ccco2)c1 | 1.9 |
| Cc1ccccc1OCC(=O)Nc1ccc(O)c(-c2nc3ccccc3s2)c1 | 3.1 |
| O=C(CSc1nnc(-c2ccccc2)c(-c2ccccc2)n1)Nc1ccc(Cl)cc1 | -0.9 |
| CC(C)(C)NC(=O)c1ccc(-c2ccc(Cl)cc2)o1 | 7.5 |
| Cc1ccc(N2CC(C(=O)NCC(C)C)CC2=O)cc1 (configuration not stated) | -6.3 |
| O=S(=O)(Oc1cccc2ccccc12)c1cc(Cl)ccc1Cl | 7.4 |
| O=C(CN(c1ccc(F)cc1)S(=O)(=O)c1ccccc1)Nc1ccc(Cl)cc1 | 4.5 |
| Cc1cccc(OCC(=O)Nc2ccc(Cl)c(Cl)c2)c1 | 3.2 |
| Cc1ccc(Nc2nc3ccc(C)cn3c(=O)c2/C=N/O)cc1 | 2.5 |
| Cc1c(NC2=NC(C)(C)Cc3ccccc32)c(=O)n(-c2ccccc2)n1C | -4 |
| O=C(Nc1ccc(-c2nc3ccc(NC(=O)c4ccccc4[N+](=O)[O-])cc3[nH]2)cc1)c1ccccc1[N+](=O)[O-] | 11.8 |
| O=C1Nc2c(S(=O)(=O)O)cc(S(=O)(=O)O)c3cccc1c23 | 4.7 |
| COc1ccc(C2CC(=O)C3=C(C2)Nc2ccccc2NC3c2cccc(C(F)(F)F)c2)cc1OC (configuration not stated) | -9.9 |
| COc1ccc(-n2c(O)c(/C=C3\C=CC=N3)c(=O)[nH]c2=O)cc1 | 85.4 |
| O=c1[nH]c(/C=C/c2ccccc2O)c([N+](=O)[O-])c(=O)[nH]1 | -6.5 |
| c1ccc2c(c1)N1CCN=C1N2CCN1CCOCC1 | -1.4 |
| Cc1ccc2c(C)nc(Nc3nc(C)c(C)c(=O)[nH]3)nc2c1 | -1 |
| Cc1cc([N+](=O)[O-])ccc1-c1ccc(C(=O)Nc2ccc(O)c(-c3nc4ccccc4s3)c2)o1 | 0.9 |
| CCOC(=O)c1c(NC(=O)c2cc(OC)c(OC)c(OC)c2)sc(C)c1C | -14.2 |
| O=C(Nc1ccc(I)cc1)c1cc(-c2cccs2)nc2ccccc12 | 7.8 |
| CCN(CC)C(=O)c1sc(NC(=O)c2cccc(F)c2)c(C(=O)OC(C)C)c1C | -1.8 |

| SMILES | displacement [%] |
| --- | --- |
| CN(C)c1cnn(-c2ccccc2)c(=O)c1N | -10.7 |
| O=C(c1ccc([N+](=O)[O-])cc1)c1ccc2c(c1)OCCCO2 | 4.5 |
| COc1cccc(N2C(=O)c3ccc(C(=O)NN4C(=O)c5ccccc5C4=O)cc3C2=O)c1 | 13 |
| Fc1ccc(C2C=C(c3ccccc3)NC(=S)N2)cc1 (configuration not stated) | -12.5 |
| CCCCOc1ccc(S(=O)(=O)N=Nc2c(O)[nH]c3ccc([N+](=O)[O-])cc23)cc1 | 19.1 |
| O=C1NC(=S)N(c2ccccc2)C(=O)/C1=C/c1cc(Cl)cc(Cl)c1O | 29.6 |
| CCOc1ccc(C(=O)NCCNc2ccc(Cl)cc2[N+](=O)[O-])cc1Br | 10.4 |
| CCOC(=O)c1c(NC(=O)c2ccc(F)cc2)sc2c1CC(C)(C)OC2 | -11.3 |
| CCOc1ccccc1/C=C1/C(=O)NN(c2ccc(Br)cc2)C1=O | 15.6 |
| COc1ccc2nc(NC(=O)c3ccc(OC)c(Br)c3)sc2c1 | 33.1 |
| NC(=O)c1ccccc1NC(=O)c1cc2ccccc2oc1=O | 4.5 |
| COC(=O)c1ccccc1NC(=O)c1cc2nc(-c3ccccc3)cc(C)n2n1 | 37.7 |
| O=C(Nc1ccc(Nc2ccccc2)cc1)c1ccccc1I | -8.7 |
| O=C(NC1CCCCC1)N1CCN(c2cccc(Cl)c2)CC1 | 0.5 |
| CC(Sc1ccc(Cl)cc1)C(=O)NC(C)c1ccccc1 (configuration not stated) | 1.7 |
| Cn1ccnc1/C=C(/OC(=O)c1ccccc1)c1ccccc1 | 16.8 |
| Cc1ccnc(SCC(=O)N2c3ccccc3CCc3ccccc32)n1 | -5.2 |
| COc1ccc(CC(=O)N2CCN(c3cccc(Cl)c3)CC2)cc1OC | 2 |
| COc1ccc(CN2CCN(C(=O)c3cccc(F)c3)CC2)cc1Br | -11.5 |
| O=C(Nc1ccccc1Cl)c1cc(-c2ccco2)nc2ccccc12 | 3.3 |
| O=C1NC(=S)N/C1=C/c1ccc(Oc2ccc(C(F)(F)F)cc2[N+](=O)[O-])c(Cl)c1 | 88.3 |
| Cc1c(NC(=O)c2cc([N+](=O)[O-])ccc2Cl)cccc1-c1nc2ccccc2s1 | 2.3 |
| COc1cccc(N=C2c3ccccc3C(=O)C2c2cccc(Br)c2)c1 (configuration not stated) | 5 |

| SMILES | displacement [%] |
| --- | --- |
| Cc1cccc(N2C(=O)/C(=C/C=C/c3ccccc3)SC2=S)c1C | 7.2 |
| Cc1cc(C(=O)NCCCn2ccnc2)ccc1[N+](=O)[O-] | 3.3 |
| CS(=O)(=O)N(CC(=O)Nc1cccc(C(F)(F)F)c1)c1cccc(Cl)c1 | 8.7 |
| O=C1N/C(=N\Nc2ccccc2)S/C1=C\c1cccc(Br)c1 | -1.1 |
| O=C(Nc1ccc(-c2nc3ncccc3o2)cc1)c1ccc(-c2ccc(Br)cc2)o1 | 88.1 |
| CN(CCO)C1=NS(=O)(=O)c2cc([N+](=O)[O-])ccc21 | -6.2 |
| CCOC(=O)c1c(NC(=O)CCC(=O)OC)sc2c1CC(C)(C)SC2 | -4.4 |
| COc1cc(-c2c(C#N)c(N)nc(SC)c2C#N)cc(OC)c1OC | -1.7 |
| COc1ccc(CCNS(=O)(=O)c2ccc3ccccc3c2)cc1 | 3 |
| CCOc1ccccc1N(CC(=O)N1CCC(C)CC1)S(=O)(=O)c1ccccc1 | 1.7 |
| Cc1ccc(Cc2cnc(CN(C)C)c(O)c2)cc1 | 19.4 |
| Nc1nnc(SCC(=O)NCCc2ccccc2)s1 | -15.1 |
| Cc1ccnc(NS(=O)(=O)c2ccc(NC(=O)c3cc(-c4ccc(Br)cc4)nc4ccccc34)cc2)n1 | 16 |
| O=C(N/N=C/c1cccn1-c1ccc([N+](=O)[O-])cc1)c1cc(-c2ccccc2)n[nH]1 | 1.9 |
| COc1cccc2sc(NC(=O)/C=C/c3ccccc3)nc12 | -0.2 |
| COc1cccc(CN2CCN(C(=O)C(c3ccccc3)c3ccccc3)CC2)c1OC | -1 |
| COc1ccc(/C(N)=N/OC(=O)Cc2ccc(Cl)cc2)cc1OC | -9.2 |
| O=C(O)CCSc1nc2ccc([N+](=O)[O-])cc2s1 | -2.2 |
| COc1cccc(C2NC(=O)NC(C)=C2C(=O)Nc2cccc(Cl)c2)c1 (configuration not stated) | -15.5 |
| COc1ccc(C2=NN(C(=O)CCC(=O)O)C(c3ccc(C)cc3)C2)cc1 (configuration not stated) | 0 |
| O=C(O)CCCCCN1C(=O)C(=O)/C(=C(/O)c2ccc(F)cc2)C1c1ccc(Cl)cc1 (configuration not stated) | -3.3 |
